Experimental data reported in PubChem BioAssay (NCATS).
Inconclusive results, whose numbers are uncertain, are shown with a selection of clear calls. Potencies of inconclusive entries are left out as doubtful fits. Calls of active or inactive are those of the source. The call rests on the fitted dose curve; in most records, active means well fitted inhibition curve with a large enough effect; inconclusive means small, poorly fitted or top-dose-only effect; inactive means no such curve, though single readings can be large or run the other way.

Molecular target: ATPase family AAA domain-containing protein 5 (Homo sapiens) (UniProt Q96QE3)
UniProt Q96QE3, sequence (Q96QE3 whole entry, looked up, the tested form may be a part): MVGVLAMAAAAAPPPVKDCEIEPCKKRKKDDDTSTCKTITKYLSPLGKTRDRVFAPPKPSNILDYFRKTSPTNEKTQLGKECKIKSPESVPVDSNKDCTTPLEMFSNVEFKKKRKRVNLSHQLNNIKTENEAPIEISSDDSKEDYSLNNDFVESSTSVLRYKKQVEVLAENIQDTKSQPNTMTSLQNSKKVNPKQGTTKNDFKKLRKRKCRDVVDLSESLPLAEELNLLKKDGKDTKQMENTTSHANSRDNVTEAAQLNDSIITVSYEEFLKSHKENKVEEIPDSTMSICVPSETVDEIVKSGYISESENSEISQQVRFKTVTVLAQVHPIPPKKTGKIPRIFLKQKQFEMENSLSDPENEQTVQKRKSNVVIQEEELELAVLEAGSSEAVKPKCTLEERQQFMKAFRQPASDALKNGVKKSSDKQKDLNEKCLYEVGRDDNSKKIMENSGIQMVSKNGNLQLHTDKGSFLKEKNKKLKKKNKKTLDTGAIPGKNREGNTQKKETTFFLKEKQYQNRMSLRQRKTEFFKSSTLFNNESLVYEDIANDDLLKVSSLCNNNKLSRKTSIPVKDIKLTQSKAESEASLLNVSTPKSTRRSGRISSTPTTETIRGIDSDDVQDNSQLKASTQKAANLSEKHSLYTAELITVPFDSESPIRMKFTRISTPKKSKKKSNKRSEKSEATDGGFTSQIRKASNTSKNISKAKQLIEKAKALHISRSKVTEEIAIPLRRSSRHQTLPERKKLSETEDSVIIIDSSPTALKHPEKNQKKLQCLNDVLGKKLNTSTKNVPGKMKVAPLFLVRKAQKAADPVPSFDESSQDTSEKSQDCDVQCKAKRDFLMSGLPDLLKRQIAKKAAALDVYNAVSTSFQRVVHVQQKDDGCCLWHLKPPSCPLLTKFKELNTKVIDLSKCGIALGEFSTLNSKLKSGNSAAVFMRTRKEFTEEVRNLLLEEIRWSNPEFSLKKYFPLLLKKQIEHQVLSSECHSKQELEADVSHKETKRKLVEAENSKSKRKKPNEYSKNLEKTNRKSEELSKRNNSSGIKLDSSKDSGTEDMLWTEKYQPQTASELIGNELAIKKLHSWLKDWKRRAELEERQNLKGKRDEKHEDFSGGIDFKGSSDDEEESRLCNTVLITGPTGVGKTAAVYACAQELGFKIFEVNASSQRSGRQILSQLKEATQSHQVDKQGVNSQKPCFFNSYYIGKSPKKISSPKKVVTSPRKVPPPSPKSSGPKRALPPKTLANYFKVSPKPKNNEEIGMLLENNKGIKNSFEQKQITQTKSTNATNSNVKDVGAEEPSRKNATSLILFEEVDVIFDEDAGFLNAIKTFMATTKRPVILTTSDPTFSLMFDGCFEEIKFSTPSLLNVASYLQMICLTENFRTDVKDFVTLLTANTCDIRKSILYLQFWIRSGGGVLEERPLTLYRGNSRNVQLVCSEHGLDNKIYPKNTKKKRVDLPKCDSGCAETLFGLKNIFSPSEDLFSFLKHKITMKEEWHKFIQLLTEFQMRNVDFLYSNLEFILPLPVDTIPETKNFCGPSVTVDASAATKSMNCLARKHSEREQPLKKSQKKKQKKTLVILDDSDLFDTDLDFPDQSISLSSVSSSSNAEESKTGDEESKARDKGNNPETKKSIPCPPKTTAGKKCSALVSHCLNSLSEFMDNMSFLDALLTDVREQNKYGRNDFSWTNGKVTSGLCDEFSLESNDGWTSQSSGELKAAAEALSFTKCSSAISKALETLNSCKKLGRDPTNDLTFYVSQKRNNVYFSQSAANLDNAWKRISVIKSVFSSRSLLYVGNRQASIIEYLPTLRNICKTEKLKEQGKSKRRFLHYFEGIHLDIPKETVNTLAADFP
Assay: qHTS screen for small molecules that inhibit ELG1-dependent DNA repair in human embryonic kidney (HEK293T) cells expressing luciferase-tagged ELG1: Hit Confirmation using MMS Stimulated ELG1 (AID 624249); further: nearly all actives have a fitted effect of over 60% in size
Details: HEK293T luciferase-tagged ELG1 level; series mostly up to 46.1 µM
Source text: Cancer cells divide rapidly compared to normal cells in the body. During cell division, cancer cells need to duplicate their genome by DNA replication. The failure of genome duplication leads to cancer cells' death. Therefore, inhibitors of DNA replication could specifically kill cancer cells. Based on this concept, many chemotherapeutic agents were developed and have been used to treat cancer patients. However, there are a limited number of agents available in the clinical setting, and some of those that do exist have low efficacy and severe side effects. Therefore, if we can find the compounds that effectively block DNA replication either by directly damaging DNA or by inhibiting other cellular mechanisms, the options for cancer treatment will be broadened. With this in mind, we developed a quantitative high-throughput ELG1-luciferase reporter gene assay. Small molecules that specifically block ELG1 function in response to DNA damage can be identified by monitoring the suppression of luciferase activity. Since ELG1 defines a pathway for repairing DNA damage, agents blocking ELG1 function can be used to sensitize cancer cells to chemotherapeutic agents whose mechanism of action involves the induction of DNA damage.
NIH Molecular Libraries Probe Production Network [MLPCN]
NIH Chemical Genomics Center [NCGC]
Assay Provider: Kyungjae Myung, NHGRI, NIH
ELG1-luc HEK293T cells will be seeded in 1536-well plates at a density of 2,000 cells/well. Approximately 5 hours after plating, compounds will be added to the plate by pin tool transfer and MMS will be added by FRD dispenser (final concentration of MMS = 10 µM). 16 hours following the addition of the compounds, luciferase activity will be measured using Amplight reagent.
Potency means the concentration at half of the fitted maximal effect; tags describe the fitted curve by direction and shape.

| Structure (SMILES) | Potency |
| --- | --- |
| CCC(C)C(NC(=O)CCCNC(=O)CCC(=O)OC1O[C@H]2OC3(C)CC[C@H]4[C@H](C)CCC(C1C)C24OO3)C(=O)O (stereo partly specified) | inconclusive [inhibitor, partial curve, poor fit] |
| O=c1[nH]c(=O)n(Cc2ccc(F)cc2)c(O)c1/C=N/Nc1ccccc1 | inactive |
| CC(=O)OC1CCC23C(=O)OC45CCC(C6=CC(=O)OC6)C4(C)CCC2C5CCC3(O)C1 (stereo unspecified) | active: 0.628 µM |
| CC(=O)c1c(C)n(C2CCCCC2)c2ccc(O)cc12 | inconclusive [inhibitor, full curve] |
| COC1CC(OC2CC[C@@]3(C=O)C4CC[C@]5(C)C(C6=CC(=O)OC6)CC[C@@]5(O)C4CC[C@]3(O)C2)OC(C)C1O (stereo partly specified) | active: 0.315 µM |
| CC(C)(C)OC(=O)NCc1ccc(CNC(=O)c2nc[nH]c2C(=O)NCc2ccc(CNC(=O)OC(C)(C)C)cc2)cc1 | inconclusive [inhibitor, partial curve] |
| COc1ccc(C[C@H]2NC[C@H](O)[C@H]2OC(C)=O)cc1 | active: 0.025 µM |
| CC1C(OC(=O)CCC(=O)NC(C)(C)CO)O[C@H]2OC3(C)CC[C@H]4[C@H](C)CCC1C24OO3 (stereo partly specified) | inconclusive [inhibitor, partial curve, poor fit] |
| Cc1c(C(=O)N2CCC(Cc3ccccc3)CC2)sc2ncnc(N3CCC(C)CC3)c12 | inconclusive [inhibitor, partial curve, poor fit] |
| COc1ccc(C(Nc2ccccc2)P(=O)(Oc2ccccc2)Oc2ccccc2)cc1 (stereo unspecified) | inconclusive [inhibitor, partial curve, poor fit] |
| C[C@@H]1C[C@H]2CC[C@H](O2)[C@H](C)C(=O)O[C@@H](C)C[C@@H]2CC[C@@H](O2)[C@@H](C)C(=O)O[C@H](C)C[C@H]2CC[C@H](O2)[C@H](C)C(=O)O[C@@H](C)C[C@@H]2CC[C@@H](O2)[C@@H](C)C(=O)O1 | active: 0.0889 µM |
